# In paper PMC10726135:
# The list shows a part of the results. At the low end of the ranking the order means little. Measured with an extract: partners may take part in the binding.
# Target: T1, HNF4alpha2 (COS-7 nuclear extract) (UniProt P41235)
# T1 sequence: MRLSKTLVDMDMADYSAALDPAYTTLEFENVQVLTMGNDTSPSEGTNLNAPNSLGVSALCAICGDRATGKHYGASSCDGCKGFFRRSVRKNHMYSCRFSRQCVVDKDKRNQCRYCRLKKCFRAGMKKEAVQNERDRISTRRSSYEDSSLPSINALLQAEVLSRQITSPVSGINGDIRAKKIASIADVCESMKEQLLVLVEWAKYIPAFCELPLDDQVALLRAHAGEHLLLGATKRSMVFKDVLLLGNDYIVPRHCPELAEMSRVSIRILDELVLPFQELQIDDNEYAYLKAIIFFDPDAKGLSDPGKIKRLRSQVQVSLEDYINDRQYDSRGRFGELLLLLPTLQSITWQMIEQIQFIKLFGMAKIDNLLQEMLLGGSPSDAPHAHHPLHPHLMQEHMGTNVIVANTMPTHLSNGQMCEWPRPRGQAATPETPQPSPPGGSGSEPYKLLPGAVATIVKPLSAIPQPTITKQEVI
# Assay: protein-binding microarray
# Conditions: COS-7 nuclear extract on double-stranded Agilent 4x180k PBM; binding buffer, salt, pH and temperature not given; high values mean tight binding; double strand, one strand shown; sequences stand for … in …GCCTAGGGAGATTAGAGTATCGGTCGA
row,Sequence,binding signal (log2 normalized intensity)
1,CACAGCGCAGCACACTGCAGCGGCATTCTC,-1.08
2,AACTGTTTCTATGTGACCTTCACCCTGCTG,4.15
3,TAAAAAAAAAAAAAAATACTCCTATCACCG,-1.05
4,CCAGCCTGTGGTGGGAAACTTCCACTAACT,-1.14
5,GTAGGCTCTCGGGCCAGCTGTACAAATAAA,-1.21
6,GGAATGTTGCTGTGCTGCCCTCTTGTGGCC,1.66
7,GAGTCGTGGCCTTGCCATTGGAGGTCACCC,2.39
8,CCAGCATTTCTGTGGACTGCTCCAGTGGAC,1.02
9,ACCCCCCAGAGGGCCATCTAGCTTAAAGGT,1.79
10,GATCTTCATGAACTTCTGTCCACAGACTCT,-0.945
11,AAGGACATTGCCCCCTATGTAAAGGCCTTT,3.77
12,AGTGGTTAAGTTTTCGAGGAGTCAAAAGGT,1.47
13,AACGAGATGGTCAAGGATCTGGCCAGGCCT,-1.15
14,CCCAAATAGACTTAAGTCTGAATTCTAGTC,-0.49
15,TAACTTGAATTGATTGCCAAGAGGGAGGGG,-1.22
16,AGGATGGAATGCTGAAGGGAAGGCTGCCGT,-1.12
17,ATATGCCGAGAATGCAGCCTTATCTTCCAG,-0.957
18,CTGTGGTCATTAATTAACTTGTGTTCAGAG,1.77
19,TTGGCAGATTAGATATATCTGTACTCAAAC,1.27
20,GGAATGTCTGACCAACCTGTCCAAAGGTCA,7.66
21,CCACAGAAACGCAGTCCTGAAAACACACAT,-1.06
22,TTCCCTTTGATCTTTCCCTTCCTGGCCAAC,1.1
23,AGAAGACAAAACAGCGTACTGTGCTAAAGA,-1.14
24,AGAGCCTAGTTCATTGCAATTACTCAATAA,-0.91
25,GAGTAAATACGAACCGTCGTAATGGCTAAG,-1

row,Sequence,binding signal (log2 normalized intensity)
1,CCCCCGGACCCAAAGTAAACAAAGATACTC,1.99
2,CTCTGCTGATAGCATAAAGCTAGGAGACAA,-1.1
3,CGCTAACTTCCAGATCAAAGGACATTTCTA,-0.977
4,GGCAAGACTGCCACCTACTGACCAAATGGG,-1.16
5,TGGAGCCACTATTCATAAAGTTCTCTGGCA,0.197
6,TTGCAAATAAAAGTTATCACCATCAGATCT,-1.2
7,TGGTAATCTCTTTTGTGTTAGAGGGTGGTG,2.14
8,GCTAAAAGCAGCATCCCTGATAAACCTGTT,-1.1
9,CAGCTGGGGCCCAGGTCGAAGTTTATGTTT,1.76
10,GAGACAGACAGAAAACAAACATTAGCTGCA,-1.03
11,ACAGTCCACTTTGAATCAGGAGAGCATCTG,-1.17
12,CTGGCTATTCAGTTTTTATTTTGTATTCTT,1.95
13,TCCCACTCTTGGGTCAACATAATATTTAGC,0.395
14,CAGCAGCTCAGTAAATTATCTTGATGGTTA,0.142
15,AACTTCTGTCCACAGACTCTGACTGTTATC,0.194
16,ATTGGCCCTTTGACCTTTAATCAAGGGCTG,5.08
17,CTTATCTTCTCCACAGATTCCTGTTAACTT,1.18
18,GACTGACCTTTGATCATTTGAGGGTGACAC,5.65
19,AACACTTACACCTGGGTGCTCCCTCCCCCT,4.36
20,ATGATAATGCCAAGGACTGAAAGAACACAG,-1.12
21,GGAAGGATGAATTTAAAAAATTCTAGAGTT,-1.17
22,TTCAAAGTTTTTCCCCTTGGTGGATTCCGT,2.19
23,TTCCTTCTTCTTCTGGGGACTTCGGTCTTT,3.34
24,TGGATGGAATGTTCTGAATCTATCTGTTAG,0.843
25,GGTTTAAAGTTCAAGTCATAACTGGATGGT,1.88

row,Sequence,binding signal (log2 normalized intensity)
1,ACCATTAACCCTACAGTCCTGCCACATCCC,-1.24
2,ACCTAAGATGTCACAGGCAAGCAAGTGACA,-1.06
3,GCAATGTGTCAGAGAAGGAGCCAGAGCTTT,-1.03
4,TCAGACGCCCTATGGCGTCCGCCTCGACCC,1.29
5,CCGTGGACTCTGCCTGCCCTCTCCATGCAG,1.05
6,CCTCAAGGAGTTTTAGATTAGGAGAGGGAG,-1.09
7,AGGCCTCGGCTTCATTAGCAAATAACAAAG,-1.11
8,ACTCGTGAAAAGAGTGATCTTTGGGCCATA,1.98
9,ACCTGCATCTGCCCAGCAGAGCAGTTTAGA,-1.23
10,TGCAATGTTAGTCTGGGAAAGCTGCAGGCA,-1.03
11,TGCCTCTCCAAACAAATTGAGAAAGATTAA,-0.951
12,CAAAAATGATACCCCAGAGTACAGCACTTT,0.584
13,AATTCCAGTTACAAACAAAACAAACTAAAC,-1.07
14,CCAAGTCTGGACCTGCTGGCTTTCTTTGGA,0.129
15,GAGAATCCCTCCCCTGTGCAAACTTTTTCC,2.04
16,GTTGAAATCCATTGTCAATACCCTGTTATT,0.783
17,CTTTGTGTACAAAGCCATCAGCACTGGTTC,-0.206
18,TTACCTAAGGAAGTTAACCCCATCACCCAT,3.3
19,TGATGAACTTTCAAGATGAAGCAAGAGTCC,0.976
20,ATCCGGCTGGCAGCCGATTGACCTGACCCA,2.96
21,GTGGGGTGGAAGCTATGCCTGAGGCTGAGG,-1.21
22,TTCTGCCCTGCCCTCAGGGAATCCTGCATT,0.806
23,TGGACTGTTCAAGACCAAAGGTCATGGCAA,4.79
24,AAACATCAAGGAAGAGAACTCCCTATCCCC,0.894
25,TGAGTTTTCCATTTACCTCCGCTGAACCTA,1.05

row,Sequence,binding signal (log2 normalized intensity)
1,CCGTGGGGCTCCTTTGATCTCCGTGTTTGG,1.77
2,TAAAAAGAAGCTTGGTATGTCTGATGAATA,0.69
3,TTGGACTTTGACCTCCAAAATTATAAGTCA,8.25
4,TGCTGAGCAACTATAAAACAGGAAAAAGGG,-1.21
5,CTATAAATACGCCTCGCCCGAGCTGTGCGG,-1.11
6,AGTCTTCCTGTCTCCATTGCCTCACCTCTC,0.625
7,ACCCTTGAGCTAAGTCCCAAGGGATAGGCA,-1.09
8,GGTTAAAGTCCAATCTTCTGGCCCCATCTA,4.04
9,GTATGTCTGGGATTTGAAGGAGCAGAATAA,0.12
10,AAGCCCTACAGCCCACAATTGCATGTTCAA,-1.14
11,ACTTTGGACCCACTGCAGGATTGGAGATCT,0.999
12,GCTAAGAAGACCAACAGGTGAAGACATGCT,-1.08
13,TCAGTGTACTTAAAAATGCCTTTCATCTTT,0.854
14,TGTAATTGCTTAAACCTAGCTACTAGCCAT,-1.07
15,TGTTTGGGGCAGGCAGGGGATGAGATCTGA,-1.01
16,CAGATGAAAGGCGGCAACTTCTTCAGCCTA,-1.2
17,TTCAGCAAACAAAGGCACTTCTCTCTCCAA,-0.92
18,CACTTGCTATTTGCATCAGCAGAGGACAGA,0.684
19,GCTGAGGAAGACTTCATTCAGGTAGCAGGC,-1.12
20,GCGCTGCTCGCAAGCAGAACCTTGGAGGCG,-0.94
21,TGGCCTGATTTGACAAGGCAGAGGTGATTT,0.51
22,CTTTGATCAGCAATGGAGAGTGATCAGATA,0.44
23,CCCTCTGACCAGAGACATTCCAACCCTGCC,-0.84
24,CAAACCCAGTTTGCATTTTCATGGACAGAG,1.05
25,GCTGTTTTCTCCAGTGCCCTTAGGGGCCGC,0.843

row,Sequence,binding signal (log2 normalized intensity)
1,TCCTTCCCCTTTTGTGTTTGTCCCTTTCTT,2.62
2,GGTTCTCAGACCACCAGCTGCTTCGGCCAG,-1.12
3,CGCCCCCCAGCGGAAGTCCAGTGGTGTCTT,3.33
4,GGATGGATCAAAGGAAACTGCTTGGGCCCC,-1.18
5,TAGGGCTCGGCATTCAGACAGACCCAGGGG,-1.14
6,GCAGAAGCAGGCCTCGGGCCTGCGAGGTTA,-1.13
7,TGAAGCCATCCTCCCACCTCAGCCTCTTGA,1.73
8,GTTTAACTGACCCAGGGAGAAAGGTCAGGG,2.86
9,CTTGTGTAATAACGAGACCTTAGCCCTGAA,-0.833
10,CAACCGTCCAGAGTCCACGTACTTAACTAC,1.51
11,CCTTGGGTCTGTAATCTCACAACTCAGAAG,0.23
12,TCTGGGCAAAGTTCACCAGGAAGCAAGACA,3.23
13,TTGTACTCAGTATGTGCTGACTGACTCCTG,0.992
14,AATTTCAGTATTAATGTCAAACTGATCAGA,1.85
15,TCCTGATCCCTGAGGTCGGGGCCTGGTCTG,0.683
16,TATCTCCTATGAGCCAAACACCATGCTAGG,-1.12
17,AAAGGGAGCATATGTATGTCAGAGTATGTG,1.54
18,GGACCCGCGCAGCCAATAGGCGAGGACGCA,-1.09
19,CCCATCCAAAGGTCAGCAATCTCAAAGACT,2.36
20,TTATTTGAACACAGTTCGAACAGTTGGCCA,1.5
21,AGGCCTGAAATTTGGCCTGCTGAGCCCAAT,-1.15
22,AACCTTTGCCCCTGGAGGGAGACATTATCT,4.27
23,CAACTCAACCCTGGCATAGCATGCCACGAT,-1
24,AATGGAGCAAAGGTCATCCTGGGCTACCGA,4.68
25,CCAGTCCAGATATAGGGGAGGTCCTAAAGA,-1.06

row,Sequence,binding signal (log2 normalized intensity)
1,TCTGCAAGTGAAAAAAATCCTTTTATTTAT,0.141
2,GAAAAGGGAGTAAAGGTCACGCAGGCCACC,3.5
3,GCTCTTGGCTAAGACAGGGGCTATTTCTGA,-1.16
4,TGGCAAGGCAGCCTCAGCCACACGCCCATC,-1.09
5,CCTATGTCCCCCGACCCGCCCGACTACAAC,5.15
6,AAAGAGCAGATGTGTCTTTATAACAGACTG,-0.299
7,GCAAACCAGATAAGACTATCTCATGACAGA,-1.14
8,TCCCACTCCCCTCCTCCAGATGGGCTCATG,3.86
9,CTTATTTATCTTCACATTCCATCATCACGG,1.29
10,TTTCTCTTATAGCTCAACCCCCAAAACTGC,4.75
11,ACAACATACCACAATAAAGTATACAAGGGA,-1.05
12,GGCGCCGCTCTGAGTGACCTTTCACCCGCG,6.81
13,CTTGAAGCAGAAAACCACTGTGCTCTGAAA,-1.17
14,CCTTCAAGTCTGAGATGAAGAGGCCAGGGG,-1.11
15,CTCTACCGTCCTCCCCCACGACAGAATTGA,4.57
16,AGTTGTTTGCAGAGGGAAAGCGAGAGAGCC,-0.96
17,AAAGATTGCAGCAAGGAATTCAACCCTTGT,1.23
18,AGAAGCAAATGAAAAGAATATCTCAGCAGC,-1.24
19,GTGAAGGTCACAATTTCCAGGAGTATGTGT,1.5
20,CTCCCACCTCAGCCTCTTGAGTAGCTGGGA,-1.17
